In PubChem BioAssay AID360 (National Center for Advancing Translational Sciences (NCATS), 2006):
Where “and” joins values, the source holds several entries; their conditions need not be identical. Equal values may be shown once. Hit rate of the full screen: of about 48,000 compounds, about 550 (1.1%) were called active. Roughly 4% stayed inconclusive and do not appear here. Cut-off read from the data, not from the text of the source: active = potency below about 15 µM; inconclusive = mostly about 16 µM to 33 µM; inactive = weaker than that. The list shows a part of the results.

target: Lysosomal acid glucosylceramidase (Homo sapiens) (UniProt P04062); experiment: Glucocerebrosidase; conditions: purified enzyme, resorufin glucoside fluorescence (screen aimed at inhibitors), 20 min;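 note: the screen sought inhibitors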
Outline: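 Compounds titrated against 0.2 nM normal enzyme, 30 uM resorufin beta-D-glucopyranoside substrate, citrate/phosphate buffer with taurocholate and tween-20, pH 5.9. Reaction ran 20 min at room temperature; fluorescence (Ex 548/Em 600) gave AC50.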
Potency is the fitted concentration of half-maximal effect.

Sequence of UniProt P04062 (P04062 whole entry, looked up): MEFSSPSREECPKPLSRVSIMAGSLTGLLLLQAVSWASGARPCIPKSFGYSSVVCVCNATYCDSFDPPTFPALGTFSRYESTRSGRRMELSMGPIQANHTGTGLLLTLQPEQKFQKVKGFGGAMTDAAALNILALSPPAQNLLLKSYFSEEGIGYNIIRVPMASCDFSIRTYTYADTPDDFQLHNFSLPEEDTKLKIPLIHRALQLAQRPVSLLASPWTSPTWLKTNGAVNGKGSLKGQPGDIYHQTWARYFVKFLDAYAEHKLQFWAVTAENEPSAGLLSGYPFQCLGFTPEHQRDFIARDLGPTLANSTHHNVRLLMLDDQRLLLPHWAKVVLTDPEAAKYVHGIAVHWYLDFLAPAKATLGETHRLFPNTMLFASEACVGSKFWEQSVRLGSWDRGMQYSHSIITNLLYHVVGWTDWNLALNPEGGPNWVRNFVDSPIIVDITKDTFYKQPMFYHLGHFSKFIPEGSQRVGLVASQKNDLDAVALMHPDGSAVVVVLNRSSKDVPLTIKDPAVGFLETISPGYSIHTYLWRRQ

Potency, inactive:
O=C(CN(C1CCCCC1)S(=O)(=O)c1ccccc1)NCc1cccnc1 > 76.9 µM
Cn1c(=O)c2c(nc(CN3CCC(C(N)=O)CC3)n2Cc2ccccc2F)n(C)c1=O > 76.9 µM
COc1cccc(S(=O)(=O)Nc2cccnc2)c1 > 76.9 µM
CC(NS(=O)(=O)c1ccccc1)C(c1cccs1)N1CCN(C)CC1 (stereo unspecified)
O=C(CCn1c(=O)oc2ccccc21)N1CCN(c2ccccc2F)CC1 > 76.9 µM
O=C(N1CCOCC1)N1CCCN(C(=O)N2CCOCC2)CC1 > 76.9 µM
CCCc1nc2scc(-c3ccccc3)c2c(=O)n1N > 76.9 µM
CCN1CCCC1CNC(=O)c1cc(NC(C)=O)c(N(C)C)cc1OC (stereo unspecified) > 76.9 µM
OCCSc1ncnc2c1oc1ccccc12
CCOC(=O)C1CCN(C(=O)c2cnn3c(C)cc(C)nc23)CC1 > 76.9 µM
COc1cc(C2C3=C(CC(C)(C)CC3=O)Nc3c2c(=O)[nH]c(=O)n3Cc2ccccc2)ccc1O (stereo unspecified) inactive and > 76.9 µM
COC(F)(C(=O)Nc1ccc2c(c1)C(=O)NC2=O)C(F)(F)F (stereo unspecified) > 76.9 µM
Cc1cc(C)c2cc(C#N)c(SCC(=O)NCc3ccco3)nc2c1 > 76.9 µM
Cc1nc(=O)c(-c2ccccc2)c(C)n1CCCO > 76.9 µM
COc1cccc(N2CC(C)Cn3c2nc2c3c(=O)n(CCN3CCOCC3)c(=O)n2C)c1 (stereo unspecified) > 76.9 µM
CC(C)CCn1c(CN2CCN(Cc3ccccc3)CC2)nc2c1c(=O)n(C)c(=O)n2C > 76.9 µM
Cc1ccc2nc(SCC(=O)Nc3cc(C)on3)[nH]c2c1 > 76.9 µM
Cn1c(CCNC(=O)c2ccco2)nc2cc(NC(=O)c3ccco3)ccc21 > 76.9 µM
CCn1c(Cc2c(C)[nH]c3ccccc23)nnc1SCC(N)=O > 76.9 µM
CCOc1ccc(NC(=O)CSc2nc3cccnc3n2CCOC)cc1 > 76.9 µM
CN1CCc2c(sc3c2C(=O)NC(c2ccc4c(c2)OCO4)N3)C1 (stereo unspecified) > 76.9 µM
CN(C)C(=O)c1ccccc1-c1ccccc1 > 76.9 µM
CCOC(=O)Cc1c(C)nc2cc(-c3ccc(C)cc3)[nH]n2c1=O > 76.9 µM
CCOC(=O)N1CC=C2C(C#N)=C(N)C(C#N)(C#N)[C@H](c3ccsc3)[C@H]2C1 > 76.9 µM
COCCN1C(=O)C(=O)/C(=C(/O)c2cccc(OC)c2)C1c1ccncc1 (stereo unspecified) > 76.9 µM
Brc1ccc(Oc2nsnc2N2CCOCC2)cc1 > 76.9 µM
CCn1c(NCc2ccccn2)nc2c1c(=O)n(C)c(=O)n2C > 76.9 µM
O=C(Nc1ccc2c(c1)Cc1ccccc1-2)c1ccco1 > 76.9 µM
Cc1cccc2c1nc(-c1ccccc1)n1cnnc21 > 76.9 µM
CCCOc1cccc(C(=O)O)c1 > 76.9 µM
CCn1c(SCC(=O)OCc2ccccc2)nnc1-c1ccco1 > 76.9 µM
COc1ccc(OC)c2c(N3CCN(C)CC3)cc(C(F)(F)F)nc12 > 76.9 µM
CC1(C)Cc2ccccc2C(=NCCCC(=O)O)N1 > 76.9 µM
O=C(NC1CCCC1)c1csc2c1CCCC2 > 76.9 µM
O=C(C1CC1)N1CCc2cc(S(=O)(=O)NC3CCN(Cc4ccccc4)CC3)ccc21 > 76.9 µM
COc1ccc(C(=O)CSc2nccc(=O)[nH]2)cc1 > 76.9 µM
c1ccc(Oc2cccc(OCCCn3cncn3)c2)cc1 > 76.9 µM
CCOC(=O)c1cc2sccc2n1CC(=O)Nc1ccc(OC)cc1OC > 76.9 µM
NS(=O)(=O)c1ccc(CCNc2nc(CN3CCOCC3)nc3sc4c(c23)CCC4)cc1 > 76.9 µM
Cc1occc1-c1nnc(SCC(=O)N2CCN(c3ccccc3F)CC2)n1C > 76.9 µM
CCOc1ccccc1C(=O)NCC(=O)OCC(=O)c1ccc2c(c1)OCCO2 > 76.9 µM
Cc1nc(NC(=O)CSc2nnc(C)n2CC2CCCO2)sc1C (stereo unspecified) > 76.9 µM
CCc1ccccc1N(C(=O)Cn1nnc2ccccc21)C(C(=O)NCCOC)c1ccco1 (stereo unspecified) > 76.9 µM
CCN(CC)CCCNC(CC(=O)O)C(=O)O (stereo unspecified) > 76.9 µM
Cc1cc(C)n(-c2nc3c(c(=O)[nH]c(=O)n3C)n2C(C)C)n1 > 76.9 µM
CN1CCN(CCCNC(=O)Cn2nc(-c3ccccc3)ccc2=O)CC1 > 76.9 µM
CCCCN(CCCC)CCNC(=O)Cc1nc2c(c(=O)[nH]c(=O)n2C)n1C > 76.9 µM
O=C(C1CCC1)N(CCc1ccccc1)Cc1nc2ccccc2c(=O)[nH]1 > 76.9 µM
Cc1cc2cc(CNC(=O)c3ccc4c(c3)OCO4)ccc2[nH]1 > 76.9 µM
COc1ccc(CCNS(=O)(=O)c2ccc(F)cc2)cc1OC > 76.9 µM
COc1ccc(NC(=O)CSc2nnc(COc3ccccc3)n2Cc2ccco2)cc1OC > 76.9 µM
Cc1ccc(C2CC(=O)N3CN(Cc4ccco4)CSC3=C2C#N)cc1 (stereo unspecified) > 76.9 µM
CN(CC(=O)NCc1ccc(F)cc1)S(=O)(=O)c1cccc2nsnc12 > 76.9 µM
c1csc(C2C3=C(Nc4ncnn42)c2ccccc2OC3)c1 (stereo unspecified)
O=C(CSc1nnc(CN2CCCCCC2=O)n1-c1ccccn1)NCC(F)(F)F > 76.9 µM
CCc1sc(NC(=O)COC)nc1-c1ccccc1 > 76.9 µM
CCOc1ccccc1NC(=O)N1CCC(c2nc3ccccc3[nH]2)CC1 > 76.9 µM
CNC(=O)CN1C(=O)C2C3C=CC(C3)C2C1=O (stereo unspecified) > 76.9 µM
CC(C)OC(=O)c1c(NC(=O)CCn2nnc3ccccc32)sc2c1CCCC2 > 76.9 µM
O=C(Cc1cn2ccsc2n1)Nc1ccccc1Oc1ccccc1 > 76.9 µM
COC(=O)c1ccc(C2C(C(=O)OCC(C)C)=C(C)N=C3SCCC(=O)N32)cc1 (stereo unspecified) > 76.9 µM
O/C(=C\Sc1nnc(Cc2ccccc2)o1)c1ccc(Br)cc1 > 76.9 µM
CCOC(=O)c1sc2ncn(CC(=O)NCC3CCCO3)c(=O)c2c1C (stereo unspecified) > 76.9 µM
Cc1cc(C(=O)Nc2nc3c(s2)CCCC3)no1 > 76.9 µM
O=C(NCc1cccnc1)C1CCN(S(=O)(=O)c2cccs2)CC1 > 76.9 µM
O=C(NC1CCCCC1)C(c1ccncc1)N(CC1CCCO1)C(=O)C(F)(F)F (stereo unspecified) > 76.9 µM
CCOc1nc(-c2ccccc2O)nc2ccccc12 > 76.9 µM
Cn1c(=O)c2c(nc(SCc3cccnc3)n2Cc2ccc(F)cc2)n(C)c1=O > 76.9 µM
CCOc1ccc(C(=O)C2CCN(C(=O)c3ccccc3C(=O)O)CC2)cc1 > 76.9 µM
Cc1cccc(C)c1NC(=O)N1CC=C(n2c(=O)[nH]c3ccccc32)CC1 > 76.9 µM
Cc1ccc(OCC(=O)Nc2ccc(O)c(C(=O)O)c2)cc1C > 76.9 µM
COc1ccc(C2CC(c3ccccc3)Nc3nc(NC(=O)c4ccco4)nn32)cc1 (stereo unspecified) > 76.9 µM
COC(=O)NCc1cc2cc(Cl)ccc2[nH]1 > 76.9 µM
Cc1nn(-c2ccc(F)cc2)c2sc(C(=O)OCC(=O)N3CCC(C)CC3)cc12 > 76.9 µM
COc1ccc(-c2nc(C#N)c(NCCc3ccccc3)o2)cc1OC > 76.9 µM
Cn1cccc1C(=O)OCC(=O)c1cc2ccccc2o1 > 76.9 µM
C/C=C(\C)c1nnc(NC(=O)c2ccco2)s1 > 76.9 µM
CCN(CC)S(=O)(=O)c1ccc2c(c1)nc(SCn1nnc3ccccc3c1=O)n2CC > 76.9 µM
O=C(OC(C(=O)NCC1CCCO1)c1ccccc1F)c1ccco1 (stereo unspecified) > 76.9 µM
COc1ccccc1Cc1noc(C(C)(C)NC(=O)c2ccccc2)n1 > 76.9 µM
COc1ccc(C2CC(c3cc(OC)ccc3OC)n3nnnc3N2)cc1 (stereo unspecified) > 76.9 µM
O=C(Cn1cnc2ccccc21)OCC(=O)N1CCCc2ccccc21 > 76.9 µM
Cc1noc(C)c1CSc1nnc(-c2ccccc2)n1Cc1ccco1 > 76.9 µM
O=C(Oc1cccc2cccnc12)c1ccc2c(c1)OCCO2 > 76.9 µM
CC(=O)NCCOc1cccc(OCCNC(C)=O)c1 > 76.9 µM
COCCSc1ccccc1C(=O)NCc1ccco1 > 76.9 µM
Cc1cccc(N(C(=O)Cn2nnc3ccccc32)C(C(=O)NCc2ccco2)c2ccncc2)c1C (stereo unspecified) > 76.9 µM
O=C(NCc1cccc(Cl)c1)c1ccc2c(c1)OCO2 > 76.9 µM
COCCNC(=O)C1CCN(S(=O)(=O)N2CCC3(CC2)OCCO3)CC1 > 76.9 µM
CCc1cc2c(cc3c(=O)n(CC(=O)N4CCN(c5ccccn5)CC4)nc(CC)n32)s1 > 76.9 µM
COc1ccc(NC(=O)Cn2nnc(-c3ccccc3N)n2)cc1OC > 76.9 µM
